Structures are written as SMILES.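 48-hour exposure; five concentrations; linearly interpolated endpoints. The concentration for 50% growth inhibition is given as GI50.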 Calls of active or inactive are those of the source. No stated cut-off is given here; in the data, active = GI50 up to about 1.1 µM and inactive = higher.

For this assay, the system named is NCI-H322M. The assay is described as follows: growth of human tumour cells (NCI), 48 h.
For the compound `Cc1cc(Cc2cc(C)c(N)cc2N)c(N)cc1N`, the GI50 is inactive: 36.6 µM. For `O=S(=O)(c1cc(Cl)ccc1Cl)n1ccnc1`, the GI50 is inactive: 35.3 µM.

Regarding `Cc1cc2c(cc1C)C(=O)C1(C2)Cc2c(C)ccc(C)c2C1=O` (configuration not stated), the GI50 was inactive: > 100 µM. With `CCOP(=O)(OCC)C1(O)CC(n2cc(C)c(=O)[nH]c2=O)OC1CO` (configuration not stated), the GI50 was inactive: > 100 µM. As to `Cc1c2c(c(O)c3c(O)cccc13)C(=O)C1(O)C(=O)C(C(=O)NCNc3ccc(C(N)=O)cn3)=C(O)C(N(C)C)C1C2` (configuration not stated), the GI50 was inactive: 7.74 µM. For `O=c1[nH]nc(Cc2ccccc2)n1Nc1ccccc1`, the GI50 is inactive: > 100 µM.

Take `COC(=O)c1c(-c2ccccc2)sc(-c2cccc3ccccc23)c1C(=O)OC`: the GI50 is inactive: 63.4 µM. Consider `CCc1cccc(C(C)CC)c1NC(=O)C(=O)Cc1nc2ccccc2o1` (configuration not stated), for which the GI50 is inactive: > 50 µM.

On to `COc1cc2c(cc1OC)CN1CCCc3cc(OC)c(OC)cc3C1C2` (configuration not stated), for which the GI50 was inactive: 50.2 µM. On to `Nc1n[nH]c(Nc2ccc(Cl)cc2)c1P(=O)(c1ccccc1)c1ccccc1`, for which the GI50 was inactive: 27.6 µM. In the case of `O=C(Cc1csc(N/N=C2\C(=O)Nc3ccccc32)n1)Nc1ccccc1`, the GI50 was inactive: 39.3 µM.

As to `O=C(Nc1ccccc1)Nn1c(-c2cccs2)nc2ccc(I)cc2c1=O`, the GI50 is inactive: 21.6 µM.

For `CCOc1ccc(/N=N/c2c(-c3ccccc3)nn(C(=O)CC(=O)Nc3ccccc3Cl)c2-c2ccccc2)cc1`, the GI50 was inactive: 83.4 µM. As for `O=C(O)CN1CCNCCN(CP(=O)(O)O)CC1`, the GI50 was inactive: > 24.7 µM.

On to `Cc1nnc(N)nc1C/C=C/C(C)Sc1ccc(Cl)cc1` (configuration not stated), for which the GI50 is inactive: 9.31 µM. Turning to `CN1N=C(Nc2ccccc2)Sc2c1cnn(-c1ccccc1)c2=O`, the GI50 was inactive: > 100 µM. In the case of `O=C(CCC(=O)Nc1cccc(C(F)(F)F)c1)CC(=O)c1ccc2ccccc2c1`, the GI50 is inactive: > 100 µM. The value for `CS(=O)(=O)C(C#N)c1nc2ccccc2nc1Cl` (configuration not stated) was inactive: > 100 µM. Regarding `CC1(C)CNC(c2ccc3c(c2)Cc2cc(C4=NC(C)(C)CN4)ccc2-3)=N1`, the GI50 was inactive: 25.2 µM. Take `CC(C#N)(c1ccccc1)N(CCc1ccccc1)C(=O)Oc1ccccc1` (configuration not stated): the GI50 was inactive: > 100 µM. On to `O=C(CC(c1ccccc1)C1C(=O)NC(=S)NC1=O)c1ccc([N+](=O)[O-])cc1` (configuration not stated), for which the GI50 was inactive: > 100 µM. The value for `COc1cc(/C=C2/Oc3c(OC)cccc3C2=O)ccc1O` was inactive: 85.9 µM; that for `COC(=O)/C(=N\NC(N)=O)C(C(=O)C(=O)Nc1ccccc1OC)c1nc2ccc([N+](=O)[O-])cc2nc1O` (configuration not stated) was inactive: > 100 µM. `CC(C(=O)N1C(=O)N(C(=O)C(C)C(O)c2ccccc2)C(c2ccccc2)C1c1ccccc1)C(O)c1ccccc1` (configuration not stated): the GI50 was inactive: 22.7 µM.

Consider `O=C(Nc1ccccc1SC(/C=C/NNC1=NN=C(c2ccccc2)C(c2ccccc2)N1)c1ccccc1)c1ccc(Cl)cc1Cl` (configuration not stated), for which the GI50 was inactive: 50.5 µM. In the case of `C/C(=N\NC(=S)N1CCCC1)c1nc2cccnc2[nH]1` it was active: 0.375 µM. As for `Cc1ccc(Nc2cc(=O)[nH]c(=S)[nH]2)cc1`, the GI50 is inactive: > 100 µM. For the compound `CSc1ccc2c(cc1=O)C(NC(=O)c1ccc(C#N)cc1)CCc1cc(O)c(O)c(O)c1-2` (configuration not stated), the GI50 is inactive: 41.1 µM. Take `O=c1ncccn1C1OC(CO)C(O)C1O` (configuration not stated): the GI50 is inactive: > 100 µM. Consider `CN(C)CCn1c(=O)c2ccc3c4c(nn3CCN(C)C)c3cc(N)ccc3n(c1=O)c24`, for which the GI50 was active: < 0.01 µM. As for `CC(C)OC(=O)c1cc(NC(=S)OC(C)C)ccc1Cl`, the GI50 is inactive: 19.7 µM. With `CC1=CC(=O)[C@@H](O)[C@]2(C)[C@H]3[C@@]4(O)OC[C@]35[C@H]([C@@H](C)[C@H]4O)[C@@H](OC(=O)C(C)(C)CO)C(=O)O[C@@H]5C[C@@H]12`, the GI50 was inactive: 4.24 µM.

Values taken from ChEMBL document CHEMBL1201862, “PubChem BioAssay data set” (2004).
